Experimental data published in publication PMC4336329 (PLoS ONE, 2015).
About 2,200 (0.71%) of roughly 310,000 compounds showed an effect of 50% or more. Effects have a minus sign here. Some of the results follow.

The compounds below were run against human ether-à-go-go-related gene (hERG) potassium channel (human, UniProt Q12809) (assay: primary screen, population patch clamp on CHO cells stably expressing hERG).
Sequence of human ether-à-go-go-related gene (hERG) potassium channel (Q12809 whole entry, looked up): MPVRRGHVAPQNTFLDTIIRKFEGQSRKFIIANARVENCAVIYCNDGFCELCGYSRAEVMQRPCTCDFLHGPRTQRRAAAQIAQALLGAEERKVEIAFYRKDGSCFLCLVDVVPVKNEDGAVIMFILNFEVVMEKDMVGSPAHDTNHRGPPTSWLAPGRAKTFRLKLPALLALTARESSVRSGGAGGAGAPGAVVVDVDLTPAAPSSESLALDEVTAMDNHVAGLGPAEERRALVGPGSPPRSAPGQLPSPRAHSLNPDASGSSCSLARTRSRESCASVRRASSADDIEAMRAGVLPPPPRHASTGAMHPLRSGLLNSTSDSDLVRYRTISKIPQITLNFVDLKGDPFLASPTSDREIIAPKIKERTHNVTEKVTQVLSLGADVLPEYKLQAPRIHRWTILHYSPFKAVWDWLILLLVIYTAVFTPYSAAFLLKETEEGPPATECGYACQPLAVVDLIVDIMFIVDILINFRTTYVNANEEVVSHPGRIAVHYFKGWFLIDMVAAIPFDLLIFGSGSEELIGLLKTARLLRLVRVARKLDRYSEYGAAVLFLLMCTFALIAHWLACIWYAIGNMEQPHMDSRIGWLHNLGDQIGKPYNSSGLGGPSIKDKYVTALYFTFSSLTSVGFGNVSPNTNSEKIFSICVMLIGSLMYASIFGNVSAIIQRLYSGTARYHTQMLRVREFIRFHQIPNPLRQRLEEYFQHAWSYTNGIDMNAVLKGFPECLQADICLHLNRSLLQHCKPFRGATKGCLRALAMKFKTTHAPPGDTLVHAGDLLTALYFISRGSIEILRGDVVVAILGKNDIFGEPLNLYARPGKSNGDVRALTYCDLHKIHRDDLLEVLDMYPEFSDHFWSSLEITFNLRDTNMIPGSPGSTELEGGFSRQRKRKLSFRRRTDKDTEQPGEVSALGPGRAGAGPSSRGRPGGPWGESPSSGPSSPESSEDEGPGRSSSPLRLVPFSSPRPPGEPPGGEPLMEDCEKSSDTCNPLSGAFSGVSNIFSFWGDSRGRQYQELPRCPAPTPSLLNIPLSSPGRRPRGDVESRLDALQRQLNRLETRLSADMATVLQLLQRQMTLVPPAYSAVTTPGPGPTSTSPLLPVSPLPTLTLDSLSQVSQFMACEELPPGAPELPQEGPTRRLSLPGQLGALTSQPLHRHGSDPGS

| SMILES | hERG current change (%, negative = inhibition) at 1uM [%] |
| --- | --- |
| CC(C)(C)NC(=O)CSc1nc(-c2ccccc2)cc(=O)[nH]1 | 13.3 |
| O=C(CN(C(=O)c1csnn1)c1cccc(F)c1)NCc1ccc(F)cc1 | -13 |
| CCOC(=O)c1cc(C)n(Cc2ccc(OCC)c(OC)c2)c1C | 8.53 |
| COc1ccc(Nc2nc(C)nc3c2oc2ccccc23)cc1 | 13.9 |
| Cc1sc2nc(CSCC(=O)Nc3ccc(C(F)(F)F)cc3)[nH]c(=O)c2c1C | -1.73 |
| Cc1ccc(CNC(=O)COC(=O)Cc2ccc(-c3ccccc3)cc2)cc1 | 11.6 |
| COCCn1c(=O)[nH]c2cc(C(=O)NCc3ccccc3)ccc2c1=O | 6.98 |
| Cc1cc(-c2ccc(S(=O)(=O)N3CCCCC3)s2)on1 | 13.5 |
| NC(=O)c1cccn1-c1ncc(C(F)(F)F)cc1Cl | 10.3 |
| CCCCNC(=O)O[C@@H]1C[C@H]2CCC(=O)N3CC[C@@H](C1)[C@@H]23 | 11.7 |
| CCN(CC)CCN(Cc1cc2cc3c(cc2[nH]c1=O)OCCO3)C(=S)NC | 8.75 |
| CCC(C(=O)N1CCN(S(=O)(=O)c2sc(C(=O)O)c(C)c2C(=O)O)CC1)c1ccccc1 (stereo not drawn) | 13.4 |
| CC1CCCC(C)N1C(=O)c1cc2ncc(CCCl)cn2n1 (stereo not drawn) | 16.5 |
| Cc1ccc(O)c(NC(=O)C2CC(c3c(F)cccc3Cl)=NO2)c1 (stereo not drawn) | 5.72 |
| COc1ccc(CNC(=O)c2ccc(N3CCC4(CC3)CC(c3ccc(Cl)cc3)=NO4)c(N)c2)cc1 | 10.8 |
| Cn1c(=O)n(C)c2cc([N+](=O)[O-])c(N3CCN(C(=O)c4cccc(Cl)c4)CC3)cc21 | 1.44 |
| CCOCCOC(=O)C1=C(C)N(C)C(=O)NC1c1cc(Cl)c(O)c(OC)c1 (stereo not drawn) | 4.47 |
| O=C(c1ccccc1F)N1CCN(c2ccccn2)CC1 | 7.38 |
| Cc1cc[n+](CC(=O)c2cccc([N+](=O)[O-])c2)c2ccccc12.[Br-] | -6.95 |

| SMILES | hERG current change (%, negative = inhibition) at 1uM [%] |
| --- | --- |
| O=C(CCn1cnnn1)Nc1cccc(F)c1 | 0.466 |
| COC(=O)C1=C(C)NC(C)=C(C(=O)OC)C1C(=O)OCc1nnc(-c2ccccc2)o1 | 9.25 |
| CCc1nnc(NS(=O)(=O)c2ccc(NC(=S)NC(=O)c3ccc(Br)cc3)cc2)s1 | 9.82 |
| CCOC(=O)C1CCN(C(=O)c2cc3c(C)cc(C)cc3[nH]2)CC1 | 12 |
| O=C(CN1CCN(c2ccccn2)CC1)NC1CCCC1 | 11.8 |
| COc1ccccc1N(CC(O)CN1C(C)CCCC1C)S(=O)(=O)c1ccccc1 (stereo not drawn) | 13.7 |
| CC1=C(C(=O)N2CCOCC2)C(c2c(F)cccc2F)NC(=O)N1 (stereo not drawn) | -0.811 |
| COc1cccc(OCC(=O)Nc2ccccc2NC(C)=O)c1 | 12.2 |
| Cc1ccc(OCC(=O)NCCO)cc1C | 12.3 |
| COc1ccc(NC(=O)c2c(C)nn(Cc3ccccc3Cl)c2Cl)cc1Cl | 8.84 |
| O=C(NC1(C(F)(F)F)C(=O)Nc2c1c(=O)[nH]c(=O)n2Cc1ccco1)C1CCCCC1 (stereo not drawn) | 20.9 |
| O=C(Nc1ccc(F)cc1)Nc1nnc(COc2ccccc2F)s1 | 7.91 |
| CSC1=NSC2=NC(=O)/C(=C\c3coc4ccccc4c3=O)C(=N)N12 | 5.07 |
| CN1CCN(C(=O)/C(=C/c2cccnc2)NC(=O)c2cccc(Br)c2)CC1 | 8.02 |
| COc1cc(OC)cc(C(=O)OCn2nnc3ccccc3c2=O)c1 | 11.4 |
| Cc1ccc(-n2c(=S)sc3c(=O)n(-c4ccccc4F)c(SCC(=O)O)nc32)cc1C | 12.2 |
| CN(C)C(=O)N1CCC(C(=O)NCc2ccc3c(c2)OCO3)CC1 | 4.52 |
| COn1c2c(c3c4no[n+]([O-])c4ccc31)CCCC2 | 18.4 |
| Br.Cc1nc2ncccn2c1-c1csc(Nc2ccc(S(N)(=O)=O)cc2)n1 | 6.21 |

| SMILES | hERG current change (%, negative = inhibition) at 1uM [%] |
| --- | --- |
| C=CCn1c(SCC(=O)Nc2c(C)n(C)n(-c3ccccc3)c2=O)nc2ccccc2c1=O | 2.73 |
| O=c1[nH]c2cc3c(cc2cc1CN(Cc1cccnc1)Cc1nnnn1Cc1ccco1)OCCO3 | 9.97 |
| CCOP(=S)(OCC)c1ccc(N(C)C)cc1 | 0.0046 |
| Cc1ccc(S(=O)(=O)NCC(=O)NCC(=O)N2CCN(c3ncccn3)CC2)cc1C | -2.6 |
| COc1ccc(/C(C)=N/Nc2ccc(F)cc2F)c(O)c1 | 1.47 |
| COc1ccccc1N(C)S(=O)(=O)c1ccc(C(=O)OCC(=O)NCc2ccco2)cc1 | 10.6 |
| CCN(CC)c1ccc(N=Cc2c(C)[nH]c3ccccc23)cc1 | 6.92 |
| CCc1nnc(NC(=O)CN2CCOCC2)s1 | 17.6 |
| COc1cccc(/C=C2/C(=O)NN(c3ccccc3)C2=O)c1 | 17.2 |
| O=C1CC(=C(c2ccccc2)c2ccccc2)C(=O)N1CCCN1CCN(c2cccc(Cl)c2)CC1 | 12.2 |
| CCOC(=O)N1CCN(C(=O)CSc2nc3c([nH]c4ccccc43)c(=O)n2CCOC)CC1 | -10.6 |
| Cc1cc(C(=O)N/N=C/c2cccnc2)c2ccccc2n1 | 10.9 |
| Cc1ccc(NCc2nnc(SCc3ccc(C#N)cc3)n2Cc2ccco2)c(C)c1 | -54.9 |
| Cn1cccc1C(C#N)c1cccc(F)c1C#N (stereo not drawn) | 6.75 |
| CC(C)n1c(-c2cccs2)nc2ccccc21 | 3.19 |
| Cn1nccc1C(=O)Nc1cccc(C(F)(F)F)c1 | 13.5 |
| O=C(O)CP(=O)(O)O | 8.55 |
| CSc1ccccc1C(=O)C1CCCN(C(=O)c2cncs2)C1 (stereo not drawn) | 7.27 |
| O=C(NCCc1c[nH]c2ccccc12)c1cnc2sccn2c1=O | 6.71 |
